From PubChem BioAssay AID1030 (National Center for Advancing Translational Sciences (NCATS), 2008)
Out of some 220,000 compounds screened, about 16,000 (7.3%) were called active. Inconclusive results, whose numbers are uncertain, are shown with a selection of clear calls. The call rests on the fitted dose curve; in most records, active means well fitted inhibition curve with a large enough effect (not every such curve was filed as active); inconclusive means small, poorly fitted or top-dose-only effect, or another doubt; inactive means no such curve, though single readings can be large or run the other way. Potencies beside an inconclusive call are fits to weak or partial responses and may not hold up.

What follows are compounds tested against Aldehyde dehydrogenase 1A1 (Homo sapiens) (UniProt P00352) (assay: qHTS Assay for Inhibitors of Aldehyde Dehydrogenase 1 (ALDH1A1)). Details: Purified ALDH1A1, NADH fluorescence, propionaldehyde substrate; series mostly up to 75.3 µM; activity, negative = inhibition: at the top concentration.
UniProt P00352, sequence (P00352 whole entry, looked up): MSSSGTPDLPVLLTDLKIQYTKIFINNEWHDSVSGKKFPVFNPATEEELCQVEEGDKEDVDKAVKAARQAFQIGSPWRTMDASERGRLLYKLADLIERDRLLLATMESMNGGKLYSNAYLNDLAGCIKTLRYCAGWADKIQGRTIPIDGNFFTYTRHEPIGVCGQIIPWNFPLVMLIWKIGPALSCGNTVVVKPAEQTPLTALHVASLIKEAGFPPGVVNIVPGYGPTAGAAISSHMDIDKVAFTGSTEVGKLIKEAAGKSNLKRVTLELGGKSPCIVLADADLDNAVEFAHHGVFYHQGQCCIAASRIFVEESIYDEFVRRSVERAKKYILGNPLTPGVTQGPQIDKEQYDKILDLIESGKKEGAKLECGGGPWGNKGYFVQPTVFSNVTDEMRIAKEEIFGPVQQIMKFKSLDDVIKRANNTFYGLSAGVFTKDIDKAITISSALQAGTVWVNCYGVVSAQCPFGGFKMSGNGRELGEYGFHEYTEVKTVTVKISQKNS
Potency means the concentration at half of the fitted maximal effect; tags describe the fitted curve by direction and shape.
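Wherever activity, negative = inhibition is given: plate controls were no enzyme wells and a reference inhibitor.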

Potency, inconclusive:
O=S(=O)(c1ccc(S(=O)(=O)N(Cc2ccco2)Cc2ccccc2Cl)cc1)N1CCCC1 7.08 µM [inhibitor, partial curve]
CCN1CCCC1CN(Cc1cc2c(C)cc(C)cc2[nH]c1=O)C(=O)NC1CCCCC1 (centres undefined) 35.5 µM [inhibitor, single point]
CCOC(=O)C1C(=O)OC(C)(C)C1C(C)C(=O)c1ccc(OC)cc1 (centres undefined) 39.8 µM [inhibitor, partial curve, poor fit]
O=C(COC(=O)c1ccccc1NCc1ccco1)Nc1ccc2c(c1)OCO2 28.2 µM [inhibitor, partial curve]
COCCn1c(=O)c(-c2cccc(C#N)c2)nc2cnc(Oc3ccc(OC)cc3)nc21 28.2 µM [inhibitor, partial curve]
CCOC(=O)c1ccccc1NC1c2ccccc2C(=O)N1c1cc(C)ccn1 (centres undefined) 37.7 µM [inhibitor, single point]
COC(=O)c1cn(NC(=O)/C=C/c2ccc(OC)c(OC)c2)c(=O)c2ccccc12 39.8 µM [inhibitor, single point]
C=CCOC(=O)c1sc(NC(=O)c2ccco2)nc1C 39.8 µM [inhibitor, single point]
CCOc1ccc(CN2C(=O)c3ccccc3C2=O)cc1C(=O)Nc1nnc(SCC)s1 3.55 µM [inhibitor, partial curve]
COc1ccccc1NC(=O)Cn1nc(-c2ccc(Cl)cc2)c2ccccc2c1=O 39.8 µM [inhibitor, single point]
COc1ccc(-c2cc(-c3ccccc3)c(C#N)c(S(C)=O)n2)cc1 (centres undefined) 31.6 µM [inhibitor, partial curve]
CCc1cccc(Nc2cnn(C34C[C@@H]5C[C@@H](CC(CC(=O)O)(C5)C3)C4)c(=O)c2Cl)c1 44.7 µM [inhibitor, single point]
O=C(c1cc2c(s1)CCCC2)N1CCN(C(=O)C2CCCO2)CC1 (centres undefined) 35.5 µM [inhibitor, partial curve]
CCOC(=O)C1CCCN(C(=S)NC2CCCCC2)C1 (centres undefined) 44.7 µM [inhibitor, single point]
COc1ccc(-c2oc3ncnc(N)c3c2-c2ccccc2)cc1 6.31 µM [inhibitor, full curve]
O=C(NCc1n[nH]c(=S)n1-c1ccc(Cl)c(Cl)c1)c1ccc(S(=O)(=O)N2CCOCC2)cc1 15.8 µM [inhibitor, partial curve]
O=c1oc2ccccc2cc1-c1nc2ccccc2o1 28.2 µM [inhibitor, partial curve]
CCn1c(-c2cccc(Br)c2)n[nH]c1=S 20 µM [inhibitor, partial curve]
CCCCCCOc1ccc(-c2ccc(C#N)cn2)cc1 25.1 µM [inhibitor, partial curve]
COc1ccc(C2CC(=O)c3c(C)nc(N4CCN(c5ccccc5)CC4)nc3C2)cc1 (centres undefined) 20 µM [inhibitor, single point]
COc1ccc(-c2nc(CCNC(=O)c3ccc(Br)o3)cs2)cc1 39.8 µM [inhibitor, single point]
c1cncc(-c2nc(N3CCOCC3)c3ccccc3n2)c1 17.8 µM [inhibitor, single point]
O=C(NCCC1=CCCCC1)C1CCN(S(=O)(=O)c2ccc(-n3cnnn3)cc2)CC1 20 µM [inhibitor, single point]
Cc1ccc(/C=N/NC(=O)CNC(=O)c2ccc(S(=O)(=O)N3CCCC3)cc2)o1 5.62 µM [inhibitor, full curve]
Cc1cccc(S(=O)(=O)NNC(=O)c2cc(-c3ccc(F)cc3)nc3ccccc23)c1 31.6 µM [inhibitor, single point]
CCCCCN1C=CC(=C2C(=O)c3ccccc3C2=O)C=C1 12.6 µM [inhibitor, partial curve, poor fit]
O=C(Nc1ccc(NC(=O)c2cc([N+](=O)[O-])ccc2N2CCOCC2)cc1)c1cccs1 17.8 µM [inhibitor, single point]
Cc1cc(=O)n2c(nc3ccccc32)[nH]1 28.2 µM [inhibitor, partial curve]

Potency, inactive:
Nc1ncnc2c1ncn2[C@H]1CC[C@@H](CO)O1

Potency, active:
Cc1sc2nc3c(SC(C)C(=O)O)cc(C(=O)c4ccccc4O)cn3c(=O)c2c1C (centres undefined) 8.91 µM
Cc1ccc(C)c(C2=NNC(=NCc3ccccc3)SC2)c1 17.8 µM
CCS(=O)(=O)C1=NSC2=NC(=O)/C(=C\c3cc(C)n(-c4cccc(OC)c4)c3C)C(=N)N21 20 µM
CN(Cc1ccco1)c1cc(-c2ccoc2)ncn1 25.1 µM
CCOC(=O)C1=C(C)C(c2ccccc2OC)NC(=S)N1 (centres undefined) 3.55 µM

activity, negative = inhibition, inactive:
CN1CCCC[C@@H]1CCN1CCCCC1 11.9% [at 13.5 µM]
O=C(Nc1cccc(F)c1)N1CC=C(n2c(=O)[nH]c3ccccc32)CC1 -4.41%
COC(=O)c1ccc(OC(C)C(=O)c2ccc(C)cc2)cc1 (centres undefined) -4.31%
O=C(N/N=C/c1c(F)cccc1Cl)c1ccc(Cn2cc(Br)cn2)o1 -5.01%
CC(C)(C)NC(=O)COC(=O)CCC(=O)c1cccs1 -0.804%
Cc1cc(NC(=O)COC(=O)CCNS(=O)(=O)c2c(Cl)cccc2Cl)no1 3.68%
CC(CCC(=O)O)C1CCC2C3C(=O)CC4CC(=O)CC[C@@]4(C)C3CC(=O)[C@]12C (some centres undefined) -5.47%
COc1ccc2cc(C3CC(c4ccco4)=NN3S(=O)(=O)c3ccccc3)c(Cl)nc2c1 (centres undefined) -6.8%
CC1(C)CC(=O)C2=C(C1)NCN(Cc1ccccc1)C2 5.55%
CN(C)C(CNC(=O)/C=C/c1cccc(Cl)c1)c1ccccc1 (centres undefined) -4.82%
